{"source": "the supplement of paper PMC10369915", "note": "The other results are listed elsewhere or left out. No stated cut-off is given here; in the data, active = 3.2 or more and inactive = the rest. Most of these values are background signal.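 Further: displayed peptides selected on beads carrying the immobilized SH2 domain, with library peptides lacking any tyrosine serving as negative controls.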", "data": [{"target": "SHP2 C-SH2 domain E139D", "assay": "enrichment score (SH2-bound / input frequency) (ratio); higher = stronger binding; tyrosines were phosphorylated by kinases first", "details": "peptide library: pTyr-Var", "values": [{"binder": "FLAVGDHKPHI", "note": "[IDS_Y225_Y225D]", "enrichment score": "inactive: 1.2"}, {"binder": "HIPFRYPKEFQ", "note": "[IDS_Y234]", "enrichment score": "inactive: 1.34"}, {"binder": "IRTIDYRFTVS", "note": "[IDS_Y497_W502S_YF]", "enrichment score": "inactive: 1.84"}, {"binder": "IALNSYHSRNC", "note": "[IFNGR1_Y397]", "enrichment score": "inactive: 0.928"}, {"binder": "DERQPYAHMNG", "note": "[IGF1R_Y1346]", "enrichment score": "inactive: 0.597"}, {"binder": "HNGVSYYINLC", "note": "[IGF2R_Y2024]", "enrichment score": "inactive: 0.899"}, {"binder": "HNGVSYFINLC", "note": "[IGF2R_Y2024_YF]", "enrichment score": "inactive: 0.784"}, {"binder": "GDPTEYFITAI", "note": "[IGSF22_Y501_S503I_YF]", "enrichment score": "inactive: 0.516"}, {"binder": "RIDPDYMGRVR", "note": "[IGSF9_Y81_V82M]", "enrichment score": "inactive: 0.732"}, {"binder": "KFVVVYFRETD", "note": "[IL17RB_Y447_I451T_YF]", "enrichment score": "active: 4.11"}]}, {"target": "SHP2 C-SH2 domain wild-type", "assay": "enrichment score (SH2-bound / input frequency) (ratio); higher = stronger binding; tyrosines were phosphorylated by kinases first", "details": "peptide library: pTyr-Var", "values": [{"binder": "FLAVGDHKPHI", "note": "[IDS_Y225_Y225D]", "enrichment score": "inactive: 1.38"}, {"binder": "HIPFRYPKEFQ", "note": "[IDS_Y234]", "enrichment score": "inactive: 1.6"}, {"binder": "IRTIDYRFTVS", "note": "[IDS_Y497_W502S_YF]", "enrichment score": "inactive: 1.66"}, {"binder": "IALNSYHSRNC", "note": "[IFNGR1_Y397]", "enrichment score": "inactive: 1.22"}, {"binder": "DERQPYAHMNG", "note": "[IGF1R_Y1346]", "enrichment score": "inactive: 0.581"}, {"binder": "HNGVSYYINLC", "note": "[IGF2R_Y2024]", "enrichment score": "inactive: 1.4"}, {"binder": "HNGVSYFINLC", "note": "[IGF2R_Y2024_YF]", "enrichment score": "inactive: 0.936"}, {"binder": "GDPTEYFITAI", "note": "[IGSF22_Y501_S503I_YF]", "enrichment score": "inactive: 0.616"}, {"binder": "RIDPDYMGRVR", "note": "[IGSF9_Y81_V82M]", "enrichment score": "inactive: 0.853"}, {"binder": "KFVVVYFRETD", "note": "[IL17RB_Y447_I451T_YF]", "enrichment score": "inactive: 2.96"}]}, {"target": "SHP2 N-SH2 domain L43F", "assay": "enrichment score (SH2-bound / input frequency) (ratio); higher = stronger binding; tyrosines were phosphorylated by kinases first", "details": "peptide library: pTyr-Var", "values": [{"binder": "FLAVGDHKPHI", "note": "[IDS_Y225_Y225D]", "enrichment score": "inactive: 1.24"}, {"binder": "HIPFRYPKEFQ", "note": "[IDS_Y234]", "enrichment score": "inactive: 1.55"}, {"binder": "IRTIDYRFTVS", "note": "[IDS_Y497_W502S_YF]", "enrichment score": "inactive: 1.94"}, {"binder": "IALNSYHSRNC", "note": "[IFNGR1_Y397]", "enrichment score": "inactive: 1.18"}, {"binder": "DERQPYAHMNG", "note": "[IGF1R_Y1346]", "enrichment score": "inactive: 0.581"}, {"binder": "HNGVSYYINLC", "note": "[IGF2R_Y2024]", "enrichment score": "inactive: 0.728"}, {"binder": "HNGVSYFINLC", "note": "[IGF2R_Y2024_YF]", "enrichment score": "inactive: 0.828"}, {"binder": "GDPTEYFITAI", "note": "[IGSF22_Y501_S503I_YF]", "enrichment score": "inactive: 0.387"}, {"binder": "RIDPDYMGRVR", "note": "[IGSF9_Y81_V82M]", "enrichment score": "inactive: 0.605"}, {"binder": "KFVVVYFRETD", "note": "[IL17RB_Y447_I451T_YF]", "enrichment score": "active: 3.36"}]}, {"target": "SHP2 N-SH2 domain T42A", "assay": "enrichment score (SH2-bound / input frequency) (ratio); higher = stronger binding; tyrosines were phosphorylated by kinases first", "details": "peptide library: pTyr-Var", "values": [{"binder": "FLAVGDHKPHI", "note": "[IDS_Y225_Y225D]", "enrichment score": "inactive: 1.13"}, {"binder": "HIPFRYPKEFQ", "note": "[IDS_Y234]", "enrichment score": "inactive: 1.4"}, {"binder": "IRTIDYRFTVS", "note": "[IDS_Y497_W502S_YF]", "enrichment score": "inactive: 1.71"}, {"binder": "IALNSYHSRNC", "note": "[IFNGR1_Y397]", "enrichment score": "inactive: 1.08"}, {"binder": "DERQPYAHMNG", "note": "[IGF1R_Y1346]", "enrichment score": "inactive: 0.569"}, {"binder": "HNGVSYYINLC", "note": "[IGF2R_Y2024]", "enrichment score": "inactive: 0.535"}, {"binder": "HNGVSYFINLC", "note": "[IGF2R_Y2024_YF]", "enrichment score": "inactive: 0.819"}, {"binder": "GDPTEYFITAI", "note": "[IGSF22_Y501_S503I_YF]", "enrichment score": "inactive: 0.45"}, {"binder": "RIDPDYMGRVR", "note": "[IGSF9_Y81_V82M]", "enrichment score": "inactive: 0.495"}, {"binder": "KFVVVYFRETD", "note": "[IL17RB_Y447_I451T_YF]", "enrichment score": "inactive: 3"}]}, {"target": "SHP2 N-SH2 domain T52S", "assay": "enrichment score (SH2-bound / input frequency) (ratio); higher = stronger binding; tyrosines were phosphorylated by kinases first", "details": "peptide library: pTyr-Var", "values": [{"binder": "FLAVGDHKPHI", "note": "[IDS_Y225_Y225D]", "enrichment score": "inactive: 1.22"}, {"binder": "HIPFRYPKEFQ", "note": "[IDS_Y234]", "enrichment score": "inactive: 1.58"}, {"binder": "IRTIDYRFTVS", "note": "[IDS_Y497_W502S_YF]", "enrichment score": "inactive: 1.89"}, {"binder": "IALNSYHSRNC", "note": "[IFNGR1_Y397]", "enrichment score": "inactive: 0.845"}, {"binder": "DERQPYAHMNG", "note": "[IGF1R_Y1346]", "enrichment score": "inactive: 0.551"}, {"binder": "HNGVSYYINLC", "note": "[IGF2R_Y2024]", "enrichment score": "inactive: 0.464"}, {"binder": "HNGVSYFINLC", "note": "[IGF2R_Y2024_YF]", "enrichment score": "inactive: 0.524"}, {"binder": "GDPTEYFITAI", "note": "[IGSF22_Y501_S503I_YF]", "enrichment score": "inactive: 0.601"}, {"binder": "RIDPDYMGRVR", "note": "[IGSF9_Y81_V82M]", "enrichment score": "inactive: 0.837"}, {"binder": "KFVVVYFRETD", "note": "[IL17RB_Y447_I451T_YF]", "enrichment score": "active: 3.68"}]}, {"target": "SHP2 N-SH2 domain wild-type", "assay": "enrichment score (SH2-bound / input frequency) (ratio); bacterial display of known human phosphotyrosine sites (pTyr-Var adds point mutants) read by sequencing; higher = stronger binding; tyrosines were phosphorylated by kinases first", "details": "peptide library: pTyr-Var", "values": [{"binder": "FLAVGDHKPHI", "note": "[IDS_Y225_Y225D]", "enrichment score": "inactive: 1.12"}, {"binder": "HIPFRYPKEFQ", "note": "[IDS_Y234]", "enrichment score": "inactive: 0.752"}, {"binder": "IRTIDYRFTVS", "note": "[IDS_Y497_W502S_YF]", "enrichment score": "inactive: 1.6"}, {"binder": "IALNSYHSRNC", "note": "[IFNGR1_Y397]", "enrichment score": "inactive: 1.06"}, {"binder": "DERQPYAHMNG", "note": "[IGF1R_Y1346]", "enrichment score": "inactive: 0.804"}, {"binder": "HNGVSYYINLC", "note": "[IGF2R_Y2024]", "enrichment score": "inactive: 1.62"}, {"binder": "HNGVSYFINLC", "note": "[IGF2R_Y2024_YF]", "enrichment score": "inactive: 1.18"}, {"binder": "GDPTEYFITAI", "note": "[IGSF22_Y501_S503I_YF]", "enrichment score": "inactive: 0.69"}, {"binder": "RIDPDYMGRVR", "note": "[IGSF9_Y81_V82M]", "enrichment score": "inactive: 0.732"}, {"binder": "KFVVVYFRETD", "note": "[IL17RB_Y447_I451T_YF]", "enrichment score": "inactive: 2.64"}]}]}
